# Out of some 310,000 compounds screened, about 2,200 (0.71%) showed an effect of 50% or more. Effects have a minus sign here. The list shows a part of the results.
# Molecular target: human ether-à-go-go-related gene (hERG) potassium channel (human, UniProt Q12809)
# Experiment: primary screen, population patch clamp on CHO cells stably expressing hERG
# Sequence of human ether-à-go-go-related gene (hERG) potassium channel (Q12809 whole entry, looked up): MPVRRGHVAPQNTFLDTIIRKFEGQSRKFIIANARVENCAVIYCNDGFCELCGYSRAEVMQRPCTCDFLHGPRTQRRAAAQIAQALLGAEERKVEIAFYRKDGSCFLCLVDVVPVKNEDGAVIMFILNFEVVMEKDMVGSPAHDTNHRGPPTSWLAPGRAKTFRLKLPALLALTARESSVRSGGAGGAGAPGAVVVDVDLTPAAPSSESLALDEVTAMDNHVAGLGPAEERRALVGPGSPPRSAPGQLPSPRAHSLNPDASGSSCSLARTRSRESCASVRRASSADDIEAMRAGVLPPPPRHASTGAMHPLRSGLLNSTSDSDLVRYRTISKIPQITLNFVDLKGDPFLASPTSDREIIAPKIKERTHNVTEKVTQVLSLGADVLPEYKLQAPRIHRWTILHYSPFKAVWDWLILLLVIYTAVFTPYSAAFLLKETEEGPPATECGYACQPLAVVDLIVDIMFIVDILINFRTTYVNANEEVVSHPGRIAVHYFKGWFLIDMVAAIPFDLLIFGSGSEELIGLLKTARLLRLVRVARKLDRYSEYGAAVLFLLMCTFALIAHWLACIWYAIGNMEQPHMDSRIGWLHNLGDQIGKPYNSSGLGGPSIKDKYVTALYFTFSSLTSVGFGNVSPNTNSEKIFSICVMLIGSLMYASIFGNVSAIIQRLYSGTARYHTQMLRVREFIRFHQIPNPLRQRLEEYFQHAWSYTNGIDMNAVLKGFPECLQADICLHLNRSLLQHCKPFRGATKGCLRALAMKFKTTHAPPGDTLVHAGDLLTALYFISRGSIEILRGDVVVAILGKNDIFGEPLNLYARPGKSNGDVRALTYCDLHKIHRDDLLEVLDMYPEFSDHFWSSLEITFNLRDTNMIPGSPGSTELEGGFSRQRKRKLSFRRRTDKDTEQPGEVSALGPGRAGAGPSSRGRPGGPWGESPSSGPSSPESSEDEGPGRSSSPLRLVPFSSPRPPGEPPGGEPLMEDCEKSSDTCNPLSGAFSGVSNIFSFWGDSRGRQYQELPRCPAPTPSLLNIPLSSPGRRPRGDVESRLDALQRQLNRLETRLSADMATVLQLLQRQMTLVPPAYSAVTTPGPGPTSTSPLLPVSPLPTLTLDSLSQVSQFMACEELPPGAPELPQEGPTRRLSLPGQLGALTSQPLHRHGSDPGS
row,Structure (SMILES),"hERG current change (%, negative = inhibition) at 1uM"
1,Cc1nn(C)c(Oc2cccc(Cl)c2)c1C(=O)Nc1ccc(F)cc1,-10.7%
2,C=CCOC(=O)C1=C(C)NC(SCC(N)=O)=C(C#N)C1c1cccs1 (stereo not drawn),7.02%
3,COc1ccc(-c2nnn(CC(=O)N(Cc3cccs3)C(C)C(=O)NCCC(C)C)n2)cc1OC (stereo not drawn),-3.84%
4,O=C(Nc1ccccc1F)NC1CCN(Cc2nnnn2Cc2ccc(F)cc2)CC1,-34.6%
5,COc1ccccc1NS(=O)(=O)c1cc(NC(=O)c2ccc(Cl)nc2)ccc1Cl,7.41%
6,COc1ccc(-c2cc(C(=O)OCC(=O)NC(C)(C)C)c3ccccc3n2)cc1,6.37%
7,CC(=O)Oc1ccc2c(C)c(CC(=O)N3CCN(C(=O)C4COc5ccccc5O4)CC3)c(=O)oc2c1C (stereo not drawn),-21.2%
8,Cc1cc(Br)ccc1SCC(=O)OCC(=O)NC1CCCC1,16.6%
9,COc1cnn(-c2cccc(C(F)(F)F)c2)c(=O)c1Cl,13.2%
10,CC1(C)CC2CC(C)(CN2S(=O)(=O)c2cccc(C(=O)OCC(=O)NC(N)=O)c2)C1 (stereo not drawn),6.36%
11,COc1ccccc1-c1cc(C(=O)O)c2c(=O)n(C)c(=O)n(Cc3ccccc3)c2n1,12.7%
12,O=C(OCc1ccccc1)C1=NNC2C(=O)N(c3ccccc3)C(=O)C12 (stereo not drawn),1.98%
13,CCN1CCN(c2cc(C)c3cc(NC(=O)c4cncc(Br)c4)ccc3n2)CC1,-14.3%
14,O=C(Nc1ccccc1C(F)(F)F)N1CCN(c2ccc3nnc(-c4ccc(F)cc4)n3n2)CC1,-4.48%
15,O=C(Cc1ccccc1)Nc1ccc(NC(=O)c2ccco2)cc1,16.2%
16,COc1ccc(C)c2sc(N(CCCN(C)C)C(=O)c3ccc(S(=O)(=O)N4CCc5ccccc5C4)cc3)nc12.Cl,11.5%
17,CC(C)NS(=O)(=O)c1ccc(CCC(=O)NCc2ccccn2)cc1,12%
18,CC(C)CN(CC(C)C)S(=O)(=O)N1CCC(C(=O)NCCN2CCOCC2)CC1,9.27%
19,O=c1[nH]c2ccccc2cc1-c1nnn(-c2ccccc2)n1,1.76%
20,O=C1CCNCCN1[C@H](CO)Cc1ccccc1,11.2%
21,CC(C)(C)OC(=O)N/N=C\c1cccnc1,28.2%
22,COc1ccc(-c2nn(CCC#N)cc2C(=O)NCc2ccccc2)cc1,2.28%

row,Structure (SMILES),"hERG current change (%, negative = inhibition) at 1uM"
1,COc1ccc(CC(=O)NCCc2ccc(Cl)cc2Cl)cc1,10.7%
2,O=C(Nc1nccs1)c1ccc(Br)c(S(=O)(=O)N2CCOCC2)c1,7.78%
3,Cc1occc1C(=O)N/N=C/c1ccc(Br)s1,21.3%
4,Cc1occc1C(=O)N/N=C/c1c(O)ccc2ccccc12,19.4%
5,CC(C)OC(=O)NC(Nc1ccccc1C(=O)O)(C(F)(F)F)C(F)(F)F,12.6%
6,O=C(O)c1cc(-c2ccccc2)nc2nc(N3CCCCC3)sc12,14.8%
7,COc1ccc(CN(C)C(=O)Cc2ccsc2)c(OC)c1OC,14.9%
8,Cc1occc1-c1nnc(SCC(=O)N2CCN(c3ccc(F)cc3)CC2)n1C,-30.3%
9,Cc1ccc(NC(=O)/C(=C\C=C\c2ccccc2)NC(=O)c2ccccc2)cc1,9.63%
10,O=C(CCNC(=O)c1ccc(Br)cc1)NCc1ccccn1,2.25%
11,CS(=O)(=O)Cc1ccc(C(=O)Nc2cccc(-c3nc4ccccc4[nH]3)c2)cc1,7.9%
12,CCOC(=O)c1c(NC(=O)/C=C/C(=O)O)sc(C)c1-c1ccc(Cl)cc1,0.41%
13,Cc1ccc2[nH]c3c(=O)n(CC(=O)NCCc4ccc(Cl)cc4)ncc3c2c1,4.75%
14,CCOC(=O)c1cnc2c(Cl)c(Cl)ccc2c1NCCN1CCOCC1.Cl,12.3%
15,C#CCN1C(=O)C(O)(CC(=O)/C=C/C=C/c2ccccc2)c2ccccc21 (stereo not drawn),13.5%
16,Cc1nc(C)c(C)nc1C,13.8%
17,Fc1ccc(C2CCCN2Cc2nc(CC3CC3)no2)cc1 (stereo not drawn),8.01%
18,O=C(Oc1ccccc1)c1ccccc1OS(=O)(=O)c1ccccc1,9.57%
19,CCOc1ccc(C2c3[nH]c4ccccc4c3CCN2C(=O)Cn2cncn2)cc1 (stereo not drawn),3.06%
20,CN(c1ccccc1)S(=O)(=O)c1ccc(NC(=O)COc2ccccc2)cc1,-5.87%
21,Brc1ccc(-c2nnc(-c3ccccc3)o2)o1,-12.6%
22,COc1ccc(/C=C/C(=O)NCCCc2ccccc2)cc1OC,8.52%

row,Structure (SMILES),"hERG current change (%, negative = inhibition) at 1uM"
1,CC(=O)c1ccc(S(=O)(=O)NCCC(=O)N2CCN(c3ccccn3)CC2)cc1,6.53%
2,Cc1ccc(S(=O)(=O)c2cc3c(=O)n4ccccc4nc3n(C3CCCCC3)c2=N)cc1,-0.427%
3,O=C(c1ccc(F)cc1)N1CCCC(C(=O)N2CCN(c3ccccc3)CC2)C1 (stereo not drawn),14.6%
4,NC(=S)Nc1ccc2c(c1)OCO2,12.3%
5,CCc1ccc(C2C3=C(CC(C)(C)CC3=O)Nc3c2c(=O)[nH]c2nc(C)nn32)cc1 (stereo not drawn),11.6%
6,O=S(=O)(c1ccccc1)c1cnn2c(C(F)(F)F)cc(-c3ccc(F)cc3)nc12,-5.21%
7,COc1ccc(CNC(=O)C2CC(c3ccc(C(F)(F)F)cc3)=NO2)cc1 (stereo not drawn),3.97%
8,CC(C)c1ccc(OCC(=O)NC2CC(C)(C)NC(C)(C)C2)c(Br)c1,3.1%
9,COc1ccccc1OCCCn1c(=O)oc2ccccc21,3.42%
10,CC(C)C(=O)NCC(c1ccc2c(c1)OCO2)N1CCOCC1 (stereo not drawn),12.4%
11,CC(C)CC(NC(=O)c1ccco1)C(=O)Nc1ccc2c(c1)OCCO2 (stereo not drawn),4.35%
12,COC(=O)C(NC(=O)c1ccccc1)c1ccccc1 (stereo not drawn),8.1%
13,COc1ccc(S(=O)(=O)Nc2nnc(CC(C)C)s2)cc1,0.514%
14,Cc1ccc(NC(=S)N(Cc2ccccc2)C(C)C)cc1,8.12%
15,CC1CN(CC(=O)Nc2nc(-c3ccc(Cl)cc3)cs2)CC(C)O1 (stereo not drawn),8.3%
16,Cc1cccc(C(=O)NCCCNC(=O)c2cccnc2)c1,7.34%
17,O=C1COc2ccc(NC(=O)N3CCN(c4ccc(F)cc4)CC3)cc2N1,-36.8%
18,Cc1ccc(NC(=O)COc2coc(CN3CCN(c4ccccc4)CC3)cc2=O)cc1,1.94%
19,CSc1ccc(CN(C)CC(=O)Nc2cccc(Br)c2)cc1,-2.57%
20,COc1cc(NS(=O)(=O)c2ccccc2)ccc1-n1nc(C)cc1C,3.72%
21,COc1cc(NC2=CC(=O)CC(C)(C)C2)cc(OC)c1,14.2%
22,Cc1cccc(Cc2cnc(NC(=O)C3=NCCN3)s2)c1,7.14%

row,Structure (SMILES),"hERG current change (%, negative = inhibition) at 1uM"
1,COc1ccc(NC(=O)Nc2nnc(Cc3ccc(OC)c(OC)c3)s2)cc1,14.9%
2,COc1ccc(Br)c(-c2nnc(CS(=O)(=O)c3ccccc3)o2)c1,9.57%
3,COc1ccc(-c2nn(CC(=O)N(C)C)c(=O)c3ccccc23)cc1,13.1%
4,O=C(Nc1cccc(S(=O)(=O)NC2=NCCC2)c1)c1ccccc1OC(F)F,8.38%
5,COc1ccc(CNC(=O)NC(C)(C)c2cccc(C(C)(C)NC(=O)NCc3ccc(OC)cc3)c2)cc1,6.21%
6,COc1ccc(S(=O)(=O)N2CCNC(=O)C2)cc1Br,6.75%
7,CCn1nc(NS(=O)(=O)c2cccc3nonc23)c2cc3ccc(C)cc3nc21,8.87%
8,CCOc1ccccc1N(CC(=O)NCc1ccco1)C(=O)CCC(=O)Nc1nccs1,10.3%
9,Cc1ccccc1C(=O)Nc1ccc(C(=O)N/N=C/c2ccccn2)cc1,11.8%
10,CCc1ccccc1NS(=O)(=O)c1cccc2nsnc12,9.16%
11,Cc1cc(OCCCC(=O)NCCc2ccccn2)ccc1Cl,19.1%
12,CCCC1NC(C(=O)O)Cc2c1[nH]c1ccccc21 (stereo not drawn),12.8%
13,Cc1cccc(NC(=O)CSCC(=O)Nc2cc(S(=O)(=O)N3CCOCC3)ccc2N2CCCC2)c1,-4.81%
14,CCN(CC(=O)Nc1ccc(OC)cc1)C(=O)c1ccc2[nH]c3c(c2c1)CC(C)CC3 (stereo not drawn),3.18%
15,COc1ccc(-c2nc(N)n(C(=O)c3ccc(C)cc3)n2)cc1,6.43%
16,CCc1nnc(NC(=O)COc2ccc3ccccc3c2)s1,16.6%
17,CC(C)C[C@H](NC(=O)[C@H](Cc1ccccc1)n1c(=O)[nH]c2ccccc2c1=O)C(=O)N1CCC(C(=O)O)CC1,10.1%
18,COc1ccc(C(=O)Nc2cccc(N(C)S(C)(=O)=O)c2)cc1OC,5.37%
19,Cc1cc(NC(=O)COC(=O)C2CC(=O)N(c3ccc(Cl)cc3)C2)no1 (stereo not drawn),5%
20,CCC(=NCCO)c1c(O)n(C2CCCCC2)c(=O)[nH]c1=O,-4.1%
21,Cc1ccc(NC(=S)N2CCN(C(=O)C3CCCO3)CC2)c(C)c1 (stereo not drawn),-1.16%
